Consider 172 sequences from PMC4242493.

Some of the results follow. The list includes weakly bound sequences.

This assay has as its target MaxL homodimer (UniProt P61244). Kind of assay: universal protein-binding microarray (PBM). The settings on record: PBS-based mixture, 10 nM His-tagged protein dimer, 2% milk, 200 ng/uL BSA, 50 ng/uL salmon testes DNA, 0.02% TX-100; detection with Alexa 488 anti-His …; high values mean tight binding; most listed sequences are background and not binding sites; double strand, one strand shown.
Chain of UniProt P61244 (P61244 whole entry): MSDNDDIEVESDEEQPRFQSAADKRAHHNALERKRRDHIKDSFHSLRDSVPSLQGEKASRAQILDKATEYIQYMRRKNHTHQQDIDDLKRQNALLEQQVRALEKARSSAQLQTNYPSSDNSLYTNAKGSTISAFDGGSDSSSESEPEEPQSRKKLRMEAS
In the case of TAGGCAAA, the binding signal (normalized occupancy) amounted to 0.0686.
Next, CGCAAAAA: 0.0714.
Next, CGTAGCTC: 0.0766; AAACAACA: 0.0764.
Consider GGCTAGCC, for which the binding signal (normalized occupancy) was 0.0611.
In the case of CCGATGAA it was 0.076; in that of GGCTCCAC, 0.0745.
As to CCAGATAG, the binding signal (normalized occupancy) was determined as 0.0774.
Next, ACGCACTG: 0.0765; AATTTGCA: 0.0748; AGGGCCGA: 0.0672.
Next, GACCGCTA: 0.0698; AAGCCCCA: 0.0742.
Next, ACGTTCAG: 0.0748; TACGAGCA: 0.0799; ACGTGCTG: 0.0935.
As to CATGAAGA, the binding signal (normalized occupancy) was 0.0792.
In the case of CTACGGCA it was 0.0744.
Next, ATTAAGCA: 0.0819; CATTGACA: 0.0829.
In the case of AAATTGGT it was 0.0762; in that of GCTCACCC, 0.0746.
Take AACTGTCG: the binding signal (normalized occupancy) is 0.0706.
As for CGCCTTTA, the binding signal (normalized occupancy) worked out at 0.0671.
On to TGTTCCAA, for which the binding signal (normalized occupancy) stood at 0.0711.
Consider CGTAAAGA, for which the binding signal (normalized occupancy) was 0.071.
In the case of CAGCTTTA it was 0.0727.
Take CACAGAGG: the binding signal (normalized occupancy) worked out at 0.0754.
Next, GGCAATTA: 0.0748; AGAGGGAA: 0.0741.
As to ACGCATCC, the binding signal (normalized occupancy) is 0.077.
As to GAGTTAGC, the binding signal (normalized occupancy) was 0.0731.
Next, AAATCGGT: 0.0734; CCGAGGTA: 0.0723; CATTTCCC: 0.0764.
Next, GCCGGACA: 0.0727.
Regarding AAAATGGC, the binding signal (normalized occupancy) came to 0.0772.
In the case of GGGCACCC it was 0.0691; in that of ATCTTCGA, 0.0761; in that of AGAATGCA, 0.0792.
In the case of CGGTACCG it was 0.0713; in that of ACGGCGGC, 0.07; in that of CTAGGAAC, 0.0691.
In the case of CTAACTGC it was 0.0701.
Turning to CACCTCCA, the binding signal (normalized occupancy) came out at 0.0801.
As to ACCGGGTA, the binding signal (normalized occupancy) came to 0.0733.
With CGAGTTAA, the binding signal (normalized occupancy) was 0.0752.
In the case of TAGAGGCA it was 0.0782.
Next, GACACCTC: 0.0746.
Consider CGCACATC, for which the binding signal (normalized occupancy) is 0.0825.
Next, CCCCAAAC: 0.077; GCTAGTTA: 0.0769.
Next, CTCACATC: 0.078.
In the case of ATTGGGCA it was 0.0772.
Take AGGTAGAG: the binding signal (normalized occupancy) turned out to be 0.0719.
Next, TAGACTCA: 0.0729; GTAAGTCA: 0.073; ATTAACTG: 0.0763.
Next, AGCTTCTG: 0.0664.
Next, AACCTACC: 0.0763; CTACACGA: 0.0821; ATAGAATA: 0.0825.
For CGGCTTGC, the binding signal (normalized occupancy) worked out at 0.0672.
In the case of AGGTGGCG it was 0.0875; in that of AGGGCTCG, 0.0695; in that of CCAGGCCG, 0.0669.
In the case of CGGGTTAA it was 0.0754; in that of GCAAATAA, 0.0767; in that of ATACCCCG, 0.0835.
GGGCCCCA: the binding signal (normalized occupancy) is 0.0709.
In the case of CAGATGGA it was 0.0847.
Next, AACAGCTG: 0.0749; AAAACTGT: 0.072; AAGCGCAT: 0.0827.
In the case of ATCGGGTA it was 0.0747.
On to GAATAGCA, for which the binding signal (normalized occupancy) turned out to be 0.0818.
Next, AATCTCAG: 0.075; GCCCGTGA: 0.0751.
In the case of AGATTTCC it was 0.0729; in that of ATCCCTGA, 0.0751.
Next, ATAAACCC: 0.0807.
For CAATGACC, the binding signal (normalized occupancy) worked out at 0.0777.
For CCGATCGC, the binding signal (normalized occupancy) is 0.0742.
Next, ACAAGCGC: 0.0756; AGATGACA: 0.0778.
Next, AGTGAATC: 0.075; AAGACTGC: 0.0693; ACTATTGC: 0.0752.
Regarding TGACAAAA, the binding signal (normalized occupancy) is 0.0791.
Turning to CTGCAACC, the binding signal (normalized occupancy) was determined as 0.0736.
Next, AAACGAAC: 0.0725; TCCCCGGA: 0.07.
For the sequence GTCATAGA, the binding signal (normalized occupancy) turned out to be 0.0813.
Next, ACCTAGAC: 0.0731; CCCGATGA: 0.0757; ATATACAT: 0.0936.
Next, CTTGCGCC: 0.0652; CGCTCAGA: 0.071; AGGCTTGC: 0.073.
Regarding AGAGTCAG, the binding signal (normalized occupancy) came to 0.075.
Take AATATCCG: the binding signal (normalized occupancy) was found to be 0.0716.
In the case of CGAGCGTA it was 0.0731.
ACAGCCAT: the binding signal (normalized occupancy) is 0.0785.
Next, AATCATCC: 0.083.
In the case of CTGCGTGC it was 0.0861.
Take AATACCTC: the binding signal (normalized occupancy) turned out to be 0.0803.
With GAAATTTA, the binding signal (normalized occupancy) stood at 0.0725.
Next, ATAAAATA: 0.0781; AGAACTAC: 0.0732.
With AATGAGCA, the binding signal (normalized occupancy) was determined as 0.0774.
In the case of CGGGACAC it was 0.0758; in that of AAGGCATA, 0.0742; in that of CCTAGTAG, 0.0707.
In the case of AGCCAGAA it was 0.0682; in that of CATTTCGC, 0.0777; in that of GCGGTGCC, 0.0695.
In the case of AACCATAG it was 0.0719; in that of CTTATTCC, 0.0719; in that of CTAAGGTA, 0.0767.
Consider ATTGAAGG, for which the binding signal (normalized occupancy) came out at 0.0752.
ACGAGTCA: the binding signal (normalized occupancy) was 0.0784.
In the case of TCCTCGCA it was 0.0758; in that of GATGGGAC, 0.0803.
Turning to CACCCCCC, the binding signal (normalized occupancy) was determined as 0.0915.
Next, CATCTAAG: 0.0744; CTTAGACA: 0.0749.
In the case of GTGGATAA it was 0.0854; in that of ATCTCTTC, 0.0747.
Next, ACCGGCGT: 0.0721; ACGGCACC: 0.0742; AGGTCCAC: 0.072.
GGAAGCAC: the binding signal (normalized occupancy) amounted to 0.0773.
As for CATCCTCA, the binding signal (normalized occupancy) turned out to be 0.0798.
Consider AAGAACAC, for which the binding signal (normalized occupancy) stood at 0.081.
In the case of ATGTCTAA it was 0.0759; in that of GATCCGTA, 0.074.
As to ACAGATCG, the binding signal (normalized occupancy) came to 0.0762.
On to ACCTGTGA, for which the binding signal (normalized occupancy) is 0.078.
On to ACCTAATG, for which the binding signal (normalized occupancy) was determined as 0.079.
In the case of GCAGTCCA it was 0.0742; in that of TTCATAAA, 0.0768; in that of CCTCTGCA, 0.0733.
Next, CTCTATAA: 0.0752; AGCAGACG: 0.0672.
Next, AATATTCT: 0.0794; ATTTTACA: 0.0835.
On to GAGCTATC, for which the binding signal (normalized occupancy) was 0.0729.
In the case of TCGGCCCA it was 0.0708.
In the case of CTATCTTC, the binding signal (normalized occupancy) is 0.0773.
In the case of GCTGCACC it was 0.0701.
Next, CTTCCAAA: 0.0767; AAAGTCGG: 0.0675.
In the case of AACCCCCA, the binding signal (normalized occupancy) was found to be 0.0788.
Turning to AGCATTGG, the binding signal (normalized occupancy) came to 0.0776.
With GGCTATGA, the binding signal (normalized occupancy) was 0.0759.
In the case of TTAGATAA it was 0.08; in that of ACCGCGCG, 0.0856.
In the case of ATAACGCA it was 0.0837.
As for ACTTTCAG, the binding signal (normalized occupancy) turned out to be 0.0708.
In the case of GTGATATA it was 0.0854.
In the case of CCGGCCCA it was 0.0718; in that of GGGCGACC, 0.0695; in that of CGCCTAAG, 0.0691.
Next, AAGTAATT: 0.0716.
For CACTCGGA, the binding signal (normalized occupancy) was 0.0735.
On to GTCCGAGA, for which the binding signal (normalized occupancy) is 0.0697.
Next, ATAACTGA: 0.0776; ACGGTAAA: 0.0764.
Next, AATACTTA: 0.0757; CCTTTCTA: 0.0811; ATGCCAGA: 0.0794.
Consider AGCTACAA, for which the binding signal (normalized occupancy) turned out to be 0.0722.
